Measurements from PubChem BioAssay (NCATS).
Several values for one entry are separate records, joined by “and”; a condition that tells them apart may be missing. Identical values can stand only once. The inconclusive results got no clear call from the source; some entries with a clear call stand among them for comparison. Potencies of inconclusive entries are doubtful fits and often do not repeat. Activity calls are given as the source filed them. The call rests on the fitted dose curve; in most records, active means well fitted cell-killing curve with a large enough effect; inconclusive means small, poorly fitted or top-dose-only effect; inactive means no such curve, though single readings can be large or run the other way.

Experiment: qHTS of pediatric cancer cell lines to identify multiple opportunities for drug repurposing: Primary screen for MG 63 (6-TG R) cells (AID 1347105); further: nearly all actives have a fitted effect of over 50% in size
Conditions: MG 63 (6-TG R) viability, CellTiter-Glo, 48 h; activity change, negative = cytotoxic: at 46 µM (top of the series)
Description: Drug repurposing or repositioning has been offered as a strategy for drug development in oncology programs. This approach has special potential for childhood cancers and other rare or orphan diseases, where the expected return on new drug development has been a disincentive to pharmaceuticals. […] In this project we exploit the poly-pharmacology of drugs to discover new indications via phenotypic screening of a panel of 19 well-characterized cell lines derived from solid tumors seen in children and adolescents. The goal is to identify approved drugs with previously unrecognized anticancer properties that has the potential to reveal new mechanisms and biological processes involved in carcinogenesis or drug resistance. We employed a titration-based paradigm (quantitative high-throughput screening or qHTS), where all compounds were tested at multiple concentrations for their effect on cell viability. Concentration-response curves (CRCs) were derived directly from the primary screen, and both potency and efficacy values were used to identify compounds with robust bioactivity profiles. We screened the NIH Chemical Genomics Center (NCGC) Pharmaceutical Collection (NPC) and Mechanism Interrogation Plate (MIPE) small molecule collections of approved and investigational compounds against these cell lines; and measured metabolically active cells after 48 hours of compound treatment as a proxy for cell viability. […] Assay Submitter: Nathalia J. Martinez, National Center for Advancing Translational Sciences, National Institutes of Health, Rockville, MD, USA; email: natalia.martinez@nih.gov Shen, M et al. Quantitative high-throughput phenotypic screening of pediatric cancer cell lines identifies multiple opportunities for drug repurposing. Oncotarget 2017 Dec 19;9(4):4758-4772. PMID 29435139.
The cells were obtained from University of North Carolina (UNC), Pediatric Preclinical Testing Program (PPT), and Coriell Institute (CI). qHTS cell viability assay: Cells were assayed in growth media at a density of 500-1,000 cells/well. Five microliters of cells were dispensed into 1,536-well, white, solid-bottom, TC-treated plates (Greiner Bio One) using a multidrop dispenser and incubated at 37 degrees C, 5% CO2, under a humidified atmosphere for 5 hours. Twenty-three nanoliters of compounds and controls (neutral control DMSO or positive control bortezomib at final concentration of 2.3 µM) were subsequently transferred by Kalypsys pintool. For primary screens, the MIPE collection was tested at 11-point dilutions (final concentrations range from 0.78 nM to 46 µM) and the NPC collection at 8-point dilutions (final concentrations range from 0.59 nM to 46 µM). Compounds tested in follow-up screens were assayed at 11-point dilutions. Cells were incubated for 48 hours, followed by addition of 3 µL of CellTiter-Glo (Promega). After a 15 min incubation at room temperature, samples were analyzed for luminescence intensity using a ViewLux High-throughput CCD imager equipped with clear filters.
On the % scale 0 is the no-effect control and ±100 the full control effect; potency means the concentration at half of the fitted maximal effect; tags describe the fitted curve by direction and shape.

SMILES	Potency	activity change, negative = cytotoxic
C#Cc1cccc(Nc2ncnc3cc(OCCOC)c(OCCOC)cc23)c1	inconclusive: 2.35 µM [cytotoxic, full curve]	
COc1ccc(CCN2CCC(Nc3nc4ccccc4n3Cc3ccc(F)cc3)CC2)cc1	active: 16.8 µM	
COc1ccc(C=Cc2cc(OC)c(OC)c(OC)c2)cc1NC(=O)[C@H](N)CO	inconclusive: 0.0074 µM [cytotoxic, full curve]	
CCN(CC)CCCC(C)Nc1ccnc2cc(Cl)ccc12 (stereo not given)	inconclusive: 11.6 µM [cytotoxic, partial curve, poor fit] and active: 11.8 µM	
O=c1[nH]c(=O)n([C@H]2C[C@@H](O)[C@@H](CO)O2)cc1C(F)(F)F		inactive: -28%
CC[C@]1(O)C[C@@H]2CN(CCc3c([nH]c4ccccc34)[C@@](C(=O)OC)(c3cc4c(cc3OC)N(C)[C@H]3[C@@](O)(C(=O)OC)[C@H](OC(C)=O)[C@]5(CC)C=CCN6CC[C@]43[C@@H]65)C2)C1	inconclusive: 33.5 nM [cytotoxic, full curve] and inconclusive: 168 nM [cytotoxic, full curve]	
CN1CCN(CCCN2c3ccccc3Sc3ccc(S(=O)(=O)N(C)C)cc32)CC1	inconclusive: 26.6 µM [cytotoxic, single point]	
OC[C@H]1O[C@@H](n2cnc3c(=S)nc[nH]c32)[C@H](O)[C@@H]1O		inactive: -7.98%
CCCCCCCCCCCCCC[N+](C)(C)C	active: 26.6 µM	
CCn1c(-c2nonc2N)nc2cncc(CNC3CCNCC3)c21	inconclusive: 14.8 µM [cytotoxic, partial curve]	
NC(=O)C(=O)N/N=C/c1ccc([N+](=O)[O-])o1	inconclusive: 33.5 µM [cytotoxic, single point]	
CC(=O)N(O)CCCCCNC(=O)CCC(=O)N(O)CCCCCNC(=O)CCC(=O)N(O)CCCCCN	inconclusive: 33.5 µM [cytotoxic, partial curve, poor fit]	
CCOc1cc(N2CCC(O)CC2)ccc1Nc1ncc2c(n1)N(C)c1ccccc1C(=O)N2C	active: 3.72 µM	
COC1=C(OC)C(=O)C(CC=C(C)CCC=C(C)CCC=C(C)CCC=C(C)CCC=C(C)CCC=C(C)CCC=C(C)CCC=C(C)CCC=C(C)CCC=C(C)C)=C(C)C1=O		inactive: -17.3%
CN1CC[C@@H](c2c(O)cc(O)c3c(=O)cc(-c4ccccc4Cl)oc23)[C@@H](O)C1	active: 0.148 µM	
COc1ccc(-c2ccc3c(N4CCOCC4)nc(N4C[C@@H](C)O[C@@H](C)C4)nc3n2)cc1CO	active: 0.187 µM	
O=C(CCCN1CCN(c2ccc(F)cc2)CC1)NC1c2ccccc2CSc2ccccc21 (stereo not given)	inconclusive: 21.1 µM [cytotoxic, partial curve, poor fit]	
C=C1[C@H](n2cnc3c(=O)[nH]c(N)nc32)C[C@H](O)[C@H]1CO	inconclusive: 4.69 µM [cytotoxic, full curve]	
CCN1CCN(CC(=O)Nc2ccc(-c3cccc4c(=O)cc(N5CCOCC5)oc34)c3sc4ccccc4c23)CC1	inconclusive: 0.296 µM [cytotoxic, full curve]	
COc1ccc(OC)c(C(O)CNC(=O)CN)c1 (stereo not given)		inactive: 13.3%

SMILES	Potency	activity change, negative = cytotoxic
Nc1[nH]nc2nnc(-c3c(-c4ccccc4)nn4ccccc34)cc12	inconclusive: 23.5 µM [cytotoxic, partial curve, poor fit]	
Cc1c(-c2cccc3c(CCCOc4cccc5ccccc45)c(C(=O)O)n(Cc4cccnc4)c23)c(COc2ccc(N3CCN([S+](=O)([O-])N(C)C)CC3)cc2)nn1C	active: 23.5 µM	
O=C1NCN(c2ccccc2)C12CCN(CCCC(c1ccc(F)cc1)c1ccc(F)cc1)CC2	inconclusive: 33.5 µM [cytotoxic, single point]	
COc1cccc(OC)c1-c1cc(C(=O)NC2(C(=O)O)C3CC4CC(C3)CC2C4)nn1-c1ccnc2cc(Cl)ccc12 (stereo not given)		inactive: -1.37%
NC(CS)C(=O)O (stereo not given)		inactive: 1.82%
C[n+]1cc2c3c(ccc2c2ccc4cc5c(cc4c21)OCO5)OCO3	active: 2.31 µM	
CC#C[C@]1(O)CC[C@H]2[C@@H]3CCC4=CC(=O)CCC4=C3[C@@H](c3ccc(N(C)C)cc3)C[C@@]21C	inconclusive: 5.31 µM [cytotoxic, partial curve] and inconclusive: 1.18 µM [cytotoxic, full curve]	
CC1C(=O)OC2C(O)C34C5CC(C(C)(C)C)C36C(OC(=O)C6O)OC4(C(=O)O5)C12O (stereo not given)		inactive: -6.2%
Cn1c(=O)c(-c2c(Cl)cccc2Cl)cc2cnc(Nc3cccc(C(=O)O)c3)nc21	inconclusive: 0.296 µM [cytotoxic, full curve, poor fit]	
CC(C)C[C@H](NC(=O)[C@H](Cc1ccccc1)NC(=O)c1cnccn1)B(O)O	active: 0.0235 µM	
COc1cc2nc(-c3cc(F)ccc3O)nc(N[C@@H]3CNC[C@@H]3C(C)(C)O)c2cc1OC	inconclusive: 29.6 µM [cytotoxic, partial curve, poor fit]	
CN1C(C(=O)Nc2ccccn2)=C(O)c2sc(Cl)cc2S1(=O)=O	inconclusive: 37.2 µM [cytotoxic, single point]	
CO[C@@H]1[C@@H](O)[C@H](O)[C@@H](n2c3c(Cl)cccc3c3c4c(c5c6cccc(Cl)c6[nH]c5c32)C(=O)NC4=O)O[C@@H]1CO	inconclusive: 0.743 µM [cytotoxic, full curve]	
COc1c(C)c2c(c(O)c1C/C=C(\C)CCC(=O)O)C(=O)OC2	inconclusive: 0.266 µM [cytotoxic, full curve, poor fit]	
Nc1c2ccccc2nc2ccccc12	inconclusive: 33.5 µM [cytotoxic, single point]	
CCCCCCNC(=O)n1cc(F)c(=O)[nH]c1=O		inconclusive: -32.6% [cytotoxic]
CC(C)CN(C[C@@H](O)[C@H](Cc1ccccc1)NC(=O)O[C@H]1CO[C@H]2OCC[C@H]21)S(=O)(=O)c1ccc(N)cc1	inconclusive: 9.35 µM [cytotoxic, partial curve]	
CC[C@]12C=CCN3CC[C@@]4(c5cc([C@@]6(C(=O)OC)C[C@H]7C[C@@H](C(C)(F)F)CN(Cc8c6[nH]c6ccccc86)C7)c(OC)cc5N(C)[C@H]4[C@@](O)(C(=O)OC)[C@H]1OC(C)=O)[C@@H]32	inconclusive: 0.0187 µM [cytotoxic, full curve]	
O[C@@H](c1cc(C(F)(F)F)nc2c(C(F)(F)F)cccc12)[C@H]1CCCCN1	active: 26.6 µM	
C#Cc1cccc(Nc2ncnc3cc(OCCOC)c(OCCO)cc23)c1	inconclusive: 9.35 µM [cytotoxic, full curve]	
